From PubChem BioAssay AID463173 (ICCB-Longwood Screening Facility, Harvard Medical School, 2010)
In all, about 52,000 compounds went through this assay and about 1,700 (3.3%) were called active. Cut-off read from the data, not from the text of the source: active = survival mostly below about 52% (no sharp cut-off); inactive = mostly above about 56%. The list shows a part of the results.

tested on: Wild type; test: S. aureus survival, RN4220 and DeltatarO strains – OD600, teichoic acid synthesis inhibitors, primary screen (AID 463173); settings: S. aureus RN4220 wild type/DeltatarO growth, OD600, 18 h, active compounds read low, screened at 18.75 µg/mL (by protocol)

Row | SMILES | survival
1 | O=C(CCSc1nnc(-c2ccco2)o1)N1CCOCC1 | inactive: 94%
2 | COc1cc(/C=C/c2nc3cc(Cl)ccc3c(=O)n2-c2cccc(C(F)(F)F)c2)cc(OC)c1OC | inactive: 72%
3 | O=C(COCc1cc(-c2ccco2)on1)Nc1cccc(O)c1 | inactive: 73%
4 | COc1ccc(-c2c(C#N)c(N)nc(OC)c2C#N)cc1 | inactive: 118%
5 | COc1ccc(Cn2c(SCC(=O)Nc3ccc(OC)cc3)nc3ccccc32)cc1 | inactive: 85%
6 | Cc1ccc(-c2nc3c(cnn3-c3ccccc3)c(=O)n2-c2cccc(Cl)c2)cc1 | inactive: 65%
7 | CN(C)S(=O)(=O)c1ccc2c(c1)N(CC(=O)N1CCN(c3cccc(Cl)c3)CC1)CCS2 | inactive: 80%
8 | COc1cc(OC)c(N(C)C(=O)C2CCCN(c3ncnc4c3nc3n4CCCCC3)C2)cc1Cl (centres undefined) | inactive: 76%
9 | Cn1c(=O)c(=O)n(C)c2cc(S(=O)(=O)CCC(=O)Nc3cccc(C(F)(F)F)c3)ccc21 | inactive: 86%
10 | CC1CCCN(Cc2c(O)ccc3c(=O)c(Oc4ccc(C(C)(C)C)cc4)c(C(F)(F)F)oc23)C1 (centres undefined) | inactive: 58%
11 | Cc1onc(-c2ccccc2)c1C(=O)Nc1ccc(S(=O)(=O)Nc2ncccn2)cc1 | inactive: 106%
12 | COc1cc(NC(=O)Nc2nnc(N3CCCCCC3)s2)cc(OC)c1 | inactive: 78%
13 | O=C(N1CCOCC1)N1CCN(c2ccccc2)CC1 | inactive: 98%
14 | O=C1N/C(=N/N=C\c2ccco2)SC1Cc1cccc(C(F)(F)F)c1 (centres undefined) | inactive: 114%
15 | COc1ccc(/C=C\C(=O)NC2CC(=O)N(c3ccc(F)cc3)C2)cc1OC (centres undefined) | inactive: 68%
16 | COc1cccc(-n2c(SCC(=O)Nc3cccc(Cl)c3)nc3c(oc4ccccc43)c2=O)c1 | inactive: 71%
17 | Cc1c(NC(=O)CC(C)C)cccc1-c1nc2cccnc2s1 | inactive: 109%
18 | O=C(CSc1cn(CCNC(=O)c2ccccc2F)c2ccccc12)Nc1ccccc1F | inactive: 60%
19 | CS(=O)(=O)c1oc(-c2ccc(F)cc2)nc1S(=O)(=O)c1ccc(Cl)cc1 | active: -1%
20 | O=C(CSc1nc2c(sc3ccccc32)c(=O)n1CCCC(=O)NC1CCCC1)Nc1ccc(F)cc1 | inactive: 90%
21 | CCOc1ccccc1CNC(=O)c1ccc(-c2nc(CSc3ccc(C)cc3)c(C)o2)cc1 | inactive: 71%
22 | COc1ccc(-n2c(=O)c3c(C)c(C)sc3n(CC(=O)NCc3ccc(C)cc3)c2=O)c(OC)c1 | inactive: 98%
23 | O=C(NCc1ccc(F)cc1)C1CCCN(c2ncnc3onc(-c4ccc(F)cc4)c23)C1 (centres undefined) | inactive: 136%

Row | SMILES | survival
24 | CCOC(=O)CNC(=O)c1ccc(-c2nn(C)c(=O)c3ccccc23)cc1 | inactive: 67%
25 | COc1ccc(Cl)cc1NC(=O)CSC1=Nc2ccccc2C2=NC(CC(=O)NC3CCCCC3)C(=O)N12 (centres undefined) | inactive: 82%
26 | Cc1ccc(Nc2c(-c3ccsc3)nc3cccc(C)n23)cc1 | inactive: 19%
27 | CCOC(=O)c1ccc2nsnc2c1 | inactive: 94%
28 | CCc1ccc(NCc2cc3ccc(OC)cc3n(CC(=O)Nc3ccc(C(C)C)cc3)c2=O)cc1 | inactive: 79%
29 | Cc1ccc(NC(=O)c2ccc3oc(=O)c(S(=O)(=O)c4ccccc4)cc3c2)cc1C | inactive: 72%
30 | CC(NC(=O)C1CCN(C(=O)c2ccc(-n3ccc4ccccc43)s2)CC1)c1ccccc1 (centres undefined) | inactive: 55%
31 | CC(SCc1ccccc1)C(=O)NCc1ccccn1 (centres undefined) | inactive: 108%
32 | COc1ccccc1NC(=O)C1=C(C)Nc2nc(SCc3ccc(Cl)cc3)nn2C1c1ccccc1Cl (centres undefined) | inactive: 90%
33 | Cc1ccc(NC(=O)Cn2nnc(-c3nc(-c4ccncc4)no3)c2N)c(C)c1 | inactive: 69%
34 | CC1CCN(C(=O)c2cc3c(=O)n(C)c4ccccc4c3s2)CC1 | inactive: 83%
35 | CCOC(=O)C1CCN(C(=O)CN2c3ccc(C(C)C)cc3-c3ccccc3S2(=O)=O)CC1 | inactive: 111%
36 | CCOc1ccc(OC(=O)c2cn(-c3cccc(OC)c3)c(=O)c3ccccc23)cc1 | inactive: 64%
37 | CCOC(=O)c1c(NC(C)=O)c2c3c(sc2n1Cc1ccc(Cl)cc1)CCCC3 | inactive: 85%
38 | COc1cc(C2NC(=O)N(C)C3=C2C(=O)N(c2cccc(Cl)c2)C3)ccc1O (centres undefined) | inactive: 75%
39 | O=C(O)c1ccc(NC(=O)C2C3C=CC(C3)C2C(=O)O)cc1 (centres undefined) | inactive: 116%
40 | CC(=O)c1cccc(NC(=O)C2=CC(c3ccc4c(c3)OCO4)=NS(=O)(=O)N2C)c1 | inactive: 77%
41 | Cc1ccc(CNC(=O)c2ccc(CSCc3ccccc3Cl)o2)cc1 | inactive: 49%
42 | Fc1ccccc1-n1ncc2c1ncn1nc(-c3ccccc3Cl)nc21 | inactive: 84%
43 | Cc1cccc(CNC(=O)C(=O)Nc2ccccc2C)c1 | inactive: 78%
44 | CC1CCCCN1CCCNC(=O)c1[nH]c2ccccc2c1Sc1ccc(Cl)cc1 (centres undefined) | active: -1%
45 | COc1ccccc1CNC(=O)CCC1N=C2c3ccccc3N=C(SCC(N)=O)N2C1=O (centres undefined) | inactive: 87%
46 | CC(=O)N1CCc2cc(CNC(=O)Nc3cc(Cl)ccc3C)ccc21 | inactive: 88%

Row | SMILES | survival
47 | COc1ccc(Cn2c(CCC(=O)Nc3cccc(OC)c3)nc3cccnc32)cc1 | inactive: 85%
48 | CCc1ccc(CNC(=O)C2CCN(c3nc4ccccc4nc3C(F)(F)F)CC2)cc1 | inactive: 88%
49 | Cc1ccc(S(=O)(=O)NCC(c2ccc(N(C)C)cc2)N2CCc3ccccc32)cc1C (centres undefined) | inactive: 129%
50 | Cc1cccc(C)c1NC(=O)CSc1nc2ncccc2o1 | inactive: 63%
51 | CCN1C(=O)c2ccccc2Sc2ccc(NC(=O)Nc3ccccc3OC)cc21 | inactive: 55%
52 | Cc1ccc(NC(=O)c2c(NC(=O)Cc3ccccc3)sc3c2CCC3)cc1 | inactive: 38%
53 | COC(=O)Cc1c(C)c2cc3c(c(C)c2oc1=O)OCN(CCc1ccccc1F)C3 | inactive: 87%
54 | CN(C)c1ccc(-c2nc3cnccn3c2Nc2cccc(C(F)(F)F)c2)cc1 | inactive: 84%
55 | COc1cccc(CNc2nccn(-c3cc(C)cc(C)c3)c2=O)c1 | inactive: 63%
56 | COc1ccc(NC(=O)Cn2c(=O)n(Cc3ccco3)c(=O)c3cc(OC)c(OC)cc32)cc1 | inactive: 99%
57 | COc1ccc2cc(-c3nc(Cl)c4c5c(sc4n3)CCCC5)c(=O)oc2c1 | inactive: 60%
58 | C=CCc1c(NCCO)nc(C)[nH]c1=O | inactive: 102%
59 | Cc1ccc(-n2ncc(C(=O)NCCN3CCOCC3)c2C2CCN(C(=O)OC(C)(C)C)CC2)c(C)c1 | inactive: 32%
60 | CCCCN(CCCNC(=O)c1ccc(Sc2ccc(Cl)cc2)c(NC(C)=O)c1)c1ccccc1 | inactive: 68%
61 | Cc1ccc(NC(=O)CSC2=Nc3ccccc3C3=NC(Cc4ccccc4)C(=O)N23)cc1C (centres undefined) | inactive: 83%
62 | Cc1cc2c(cc1S(=O)(=O)CCC(=O)N1CCCC(C)C1)OCC(=O)N2 (centres undefined) | inactive: 89%
63 | Clc1ccc2nc(NCc3ccccc3)c3nncn3c2c1 | inactive: 83%
64 | Cc1c(Cl)cccc1NC(=O)Cn1cc(C(=O)C2CCCCC2)c2ccccc21 | inactive: 74%
65 | CCSc1ncc(Cl)c(C(=O)Nc2ccc(S(=O)(=O)N3CCC(C)CC3)cc2)n1 | inactive: 93%
66 | COCCn1c(CCC(=O)Nc2ccc(C)c(Cl)c2)nc2cccnc21 | inactive: 84%
67 | CC(C)(C)OC(=O)N1CCC(c2c(C(=O)NCc3ccccc3)cnn2-c2ccccc2)CC1 | inactive: 73%
68 | CCCCn1c(=N)c(S(=O)(=O)c2ccc(Cl)cc2)cc2c(=O)n3cccc(C)c3nc21 | inactive: 67%
69 | O=C(CC1CCCCC1)Nc1cccnc1 | inactive: 96%

Row | SMILES | survival
70 | CC1CCC(NC(=O)c2ccc3c(c2)N(Cc2ccccc2)C(=O)c2ccccc2S3(=O)=O)CC1 (centres undefined) | inactive: 137%
71 | COc1ccccc1CNC(=O)CCc1c(C)nc2c(c(C)nn2-c2ccc(C)c(C)c2)c1C | inactive: 91%
72 | O=C(NC(=O)c1ccccc1)Nc1ccc(-n2nc(C(F)(F)F)cc2C(F)(F)F)cc1 | inactive: 162%
73 | Cc1cccc(Nc2c(-c3cccs3)nc3nc(C)cc(C)n23)c1 | inactive: 163%
74 | CN(c1ccccc1C(=O)N1CCN(Cc2ccc3c(c2)OCO3)CC1)S(C)(=O)=O | inactive: 96%
75 | CCc1ccc(CNC(=O)c2cc3c(=O)n(CC)c4ccccc4c3s2)cc1 | inactive: 63%
76 | CCOc1ccccc1CNC(=O)CN1C(=O)CSc2ccc(S(=O)(=O)N3CCOCC3)cc21 | inactive: 73%
77 | COc1ccc(OC)c(NC(=O)Cn2c(=O)n(CC3CCCO3)c(=O)c3cc(OC)c(OC)cc32)c1 (centres undefined) | inactive: 72%
78 | COc1ccc(NC(=O)CN(C)S(=O)(=O)c2ccc3c(c2)CCC(=O)N3)c(OC)c1 | inactive: 86%
79 | CCc1ccc(NC(=O)CSc2nc3c(sc4ccccc43)c(=O)n2CCCOC)cc1 | inactive: 73%
80 | Cc1ccc(CNC(=O)c2cnc(N3CCCCC3)c3ccccc23)cc1 | inactive: 71%
81 | CCOC(=O)CNc1nc2ccccc2n2c(C)nnc12 | inactive: 86%
82 | O=C(c1ccc2c(c1)CCN2S(=O)(=O)c1ccccc1)N1CCN(c2cccc(Cl)c2)CC1 | inactive: 70%
83 | Cc1ccc(C)c(OCCn2cc(C(=O)c3cccs3)c3ccccc32)c1 | inactive: 72%
84 | CCSc1nc2ccc(C)cc2cc1C#N | inactive: 111%
85 | Cc1cccc(C(=O)N2CCc3cc(CNC(=O)c4ccc(Br)o4)ccc32)c1 | inactive: 87%
86 | O=[N+]([O-])c1ccc(S(=O)(=O)NCc2nc3cccnc3n2Cc2ccccc2Cl)cc1 | inactive: 74%
87 | O=C(c1ccc(F)c(F)c1)N1CCc2ccccc2C1 | inactive: 131%
88 | CCOC(=O)/C(C#N)=C(\O)c1ccccc1 | inactive: 104%
89 | O=c1nc2c(-c3ccc(F)cc3Cl)n[nH]n2c2ccccc12 | inactive: 72%
